# According to PubChem BioAssay AID652104 (National Center for Advancing Translational Sciences (NCATS), 2013):
# About 7,200 (1.8%) of roughly 410,000 compounds were called active. Inconclusive means that the source gave no clear call. Such entries were picked first, then a sample of the others. The call rests on the fitted dose curve; in most records, active means well fitted activation curve with a large enough effect; inconclusive means small, poorly fitted or top-dose-only effect, or another doubt; inactive means no such curve, though single readings can be large or run the other way. Potencies of inconclusive entries are left out as doubtful fits.
# Assay: qHTS of TDP-43 Inhibitors; further: nearly all actives have a fitted effect of over 50% in size; on growth rescue (activation): % of control where 0% means no effect
# Conditions: TDP-43 expressing yeast growth rescue, BacTiter-Glo, 24 h; growth rescue (activation): at 46.1 µM (top of the series) unless noted
# Outline: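 Growth rescue of TDP-43-toxic yeast measured as ATP luminescence (BacTiter-Glo). Cells grown to mid-log in raffinose, induced in galactose at OD600=0.02, exposed to compound 24 hr at 30 deg C.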
# Potency means the concentration at half of the fitted maximal effect; tags describe the fitted curve by direction and shape.
SMILES,Potency,growth rescue (activation)
O=C(Nc1ccc([N+](=O)[O-])cc1Cl)c1cc(Cl)ccc1O,"inconclusive [activator, full curve]",
Cc1cc(C)c2oc(-c3cc(NC(=O)Cc4ccccc4)ccc3Cl)nc2c1,"inconclusive [activator, partial curve]",
O=C(Nc1ccccc1)C1=C[C@H](c2ccc(Br)cc2)C[C@H](OCc2ccc(CO)cc2)O1,"inconclusive [activator, single point]",
c1ccc(-c2csc3ncnc(N4CCOCC4)c23)cc1,inactive,
COc1cccc(Nc2nc(N)nc(-c3oc4ccccc4c3C)n2)c1,"inconclusive [activator, single point]",
O=C(Nc1cccc(Oc2ccccc2)c1)C1Cc2c(-c3ccco3)ccnc2O1 (stereo not given),active: 17.8 µM,
COC(=O)Nc1c(-c2ccccc2)nc2ccccn12,inactive,
Cc1cc(N2CCN(c3cccc(C(F)(F)F)c3)CC2)n2nc(-c3ccccc3C)nc2n1,"inconclusive [activator, partial curve]",
Cc1ccc(C(C)C)c(OCC(=O)Nc2cccc(-c3nc4ncccc4o3)c2)c1,active: 22.4 µM,
C#CCOCCOCCOCCNc1nc(N2CCN(C(=O)[C@H]([C@@H](C)O)n3cc(CCCCN)nn3)CC2)nc(N2CCN(C(=O)[C@H](CCCCN)n3cc(CCCC)nn3)CC2)n1,"inconclusive [activator, partial curve, poor fit]",
Cc1ccc(NC(=O)c2cccc(OCc3c(C)noc3C)c2)cc1,"inconclusive [activator, single point]",
Cc1ccc2c(c1)C(=O)N1[C@H]3c4ccccc4OC[C@@H]3[C@H](c3ccccc3)[C@]1(C)C(=O)N2,,inconclusive: -45% [activator]
O=C(CSc1nc(=O)n2cc(Cl)ccc2n1)Nc1cccc2ccccc12,active: 7.08 µM,
O=[N+]([O-])c1ccc(O)c(/C=N/Nc2ccccn2)c1,inactive,
CCN1CCN(Cc2ccc(NC(=O)c3cc(NC(=O)c4cc(C)on4)cc(OC)c3)cc2C(F)(F)F)CC1,"inconclusive [activator, single point]",
COc1ccccc1Nc1nc2cc(C)ccc2cc1C#N,inactive,
Cc1sc2ncn(CC(=O)N3CCN(c4ccccc4F)CC3)c(=O)c2c1S(=O)(=O)N1CCN(c2ncccn2)CC1,inactive,
CC(C)(C)OC(=O)COc1cc(OCC(=O)OC(C)(C)C)c2c(=O)cc(-c3ccccc3)oc2c1,inactive,
COc1ccc(C(=O)N2CC(=O)Nc3ccc(C)cc3C2c2ccc(F)cc2)c(OC)c1 (stereo not given),inactive,
O=C(COC(=O)c1c(Cl)cccc1Cl)NCc1cccs1,"inconclusive [activator, partial curve, poor fit]",
O=C(CCC(=O)OCc1ccc(Br)cc1)Nc1ccccc1,active: 7.08 µM,
COc1ccc(-c2cnc3c(NC=O)cc(-c4cccc(NS(C)(=O)=O)c4)cn23)cc1OC,inactive,
O=C(c1ccccc1)C1OC1C(=O)c1ccccc1 (stereo not given),inactive,

SMILES,Potency,growth rescue (activation)
COc1ccc(CNc2nc(-c3ccco3)nn2S(=O)(=O)c2ccc3ccccc3c2)cc1OC,inactive,
CN1C(=O)N(C)c2ccc(Br)c3cccc1c23,"inconclusive [activator, partial curve]",
Cc1ccc(C)c(NC(=O)Cn2c(=O)n(Cc3nc(C)no3)c(=O)c3cc4c(cc32)OCO4)c1,inactive,
CCOC(=O)C(=O)N1CCN(c2nc(-c3ccc(Cl)cc3)cs2)CC1,"inconclusive [activator, single point]",
Cc1ccc(-c2cc(C(=O)N3CCN(S(=O)(=O)c4ccc(Br)s4)CC3)[nH]n2)cc1C,"inconclusive [activator, partial curve, poor fit]",
COc1cc(CNCCNC(=O)c2nonc2N)ccc1OCc1ccc(Cl)cc1,inactive,
O=C(c1ccc(Cl)cc1)C(CN1CCCC1)c1ccccc1 (stereo not given),"inconclusive [activator, single point]",
Cc1ccc(C2=NOC(=O)/C2=C\C=C\c2ccccc2)cc1,"inconclusive [activator, partial curve]",
O=C(Nc1ccc(F)c(Cl)c1)c1cc(C2CCCN(C(=O)c3cccs3)C2)on1 (stereo not given),active: 22.4 µM,
CCc1ccc(NC(=O)Nc2ccon2)cc1,"inconclusive [activator, partial curve]",
CC(=O)N1c2ccc(S(=O)(=O)N3CCN(c4cc(Cl)ccc4C)CC3)cc2CC1C (stereo not given),inactive,
COc1ccc(-c2nc(C)c(CCNC(=O)c3ccco3)s2)cc1,active: 15.8 µM,
Cc1csc(SCC(=O)NC(C)C2CC3CCC2C3)n1 (stereo not given),"inconclusive [activator, partial curve, poor fit]",
CCN1CCN(C(=O)c2ccc3c(c2)N(Cc2c(F)cccc2Cl)C(=O)c2ccccc2S3)CC1,inactive,
COc1ccc(OCCn2cc(C(=O)c3ccco3)c3ccccc32)cc1,active: 17.8 µM,
COc1cc(C(=O)NCc2nnnn2-c2ccc(C)c(C)c2)cc(OC)c1OC,inactive,
O=C1CCC(C(=O)N2CCCCO2)CN1Cc1ccc(Cl)cc1 (stereo not given),inactive,
COc1ccc2c(c1)[C@H]1[C@H](CO2)[C@H](c2ccccc2)[C@]2(C)C(=O)Nc3ccc(C)cc3C(=O)N12,,inconclusive: -46.7% [activator]
c1ccc(Nc2nc(N3CCOCC3)nc(N3CCOCC3)n2)cc1,"inconclusive [activator, single point]",
CCc1nc2ccc(C(=O)N3CCN(c4cccc(OC)c4)CC3)cc2nc1CC,"inconclusive [activator, single point]",
CCSc1ccccc1C(=O)N1CCC2(CC1)CC(=O)c1ccccc1O2,"inconclusive [activator, single point]",
COc1cc2c(cc1OC)C(COc1cc(C)cc(C)c1)N(C(=O)c1ccc(S(=O)(=O)N3CCCC3)cc1)CC2 (stereo not given),"inconclusive [activator, partial curve, poor fit]",
